Results taken from PMC12820563, “FoxP3 forms a head-to-head dimer in vivo and stabilizes its multimerization on adjacent microsatellites”.
Some of the results follow.

Each sequence was assayed against T1, MBP-FoxP1dN (Mus musculus, UniProt P58462 326-579) (assay: PD-seq (MBP pull-down with sequencing); 20 mM Tris-HCl pH 7.5, 100 mM NaCl, 1.5 mM MgCl2, 0.4 uM protein, 0.1 uM dsDNA library, 30 min, room temperature, amylose pull-down; high values mean tight binding). Settings: protein: recombinant; tags: His6-MBP; chain copies: 2; dsDNA, one strand shown.
T1 sequence: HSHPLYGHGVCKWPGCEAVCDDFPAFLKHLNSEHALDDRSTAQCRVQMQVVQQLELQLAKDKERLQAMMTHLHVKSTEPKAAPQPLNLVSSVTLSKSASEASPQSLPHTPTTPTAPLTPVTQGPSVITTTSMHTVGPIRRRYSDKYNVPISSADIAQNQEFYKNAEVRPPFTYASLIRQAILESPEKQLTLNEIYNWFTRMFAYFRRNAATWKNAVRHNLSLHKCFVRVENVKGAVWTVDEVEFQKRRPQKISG
In short: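 His6-MBP-tagged mouse FoxP3 or FoxP1 fragment lacking the N-terminus, expressed in E. coli, was mixed at 0.4 µM with 0.1 µM Klenow-filled double-stranded degenerate DNA library. Incubation was 30 min at room temperature in Tris pH 7.5 buffer with NaCl and MgCl2. Complexes were caught on amylose resin and washed three times; DNA was released with proteinase K, PCR-barcoded and Illumina-sequenced. Binding is reads-per-million enrichment, pull-down over input, with replicates pooled.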
In the case of “GATGATTGTTCTCCCAGCTGATGAATTATTGACGTCGAGTAAACAAATTTTCCTAATCTTTCTGTTCAAGCGCCATCTAC”, the binding signal is reported as 1.66 RPM ratio (pull-down/input).
For “GATGATTGTTCTCCCAGCTGATGAATTTGGTGTGTCGAGTAAACAAATTTTCCTAATCTTTCTGTTCAAGCGCCATCTAC”, the binding signal was 1 RPM ratio (pull-down/input).
In the case of “GATGATTGTTCTCCCAGCTGATGAATTTTAACTGTCGAGTAAACAAATTTTCCTAATCTTTCTGTTCAAGCGCCATCTAC”, the binding signal is reported as 0.899 RPM ratio (pull-down/input).
“GATGATTGTTCTCCCAGCTGATGAATTTGAGTATTCGAGTAAACAAATTTTCCTAATCTTTCTGTTCAAGCGCCATCTAC” was tested, and the binding signal was 0.967 RPM ratio (pull-down/input).
For “GATGATTGTTCTCCCAGCTGATGAATTCTGGACATCGAGTAAACAAATTTTCCTAATCTTTCTGTTCAAGCGCCATCTAC”, the binding signal was 0.937 RPM ratio (pull-down/input).
For “GATGATTGTTCTCCCAGCTGATGAATTCAATGCTTCGAGTAAACAAATTTTCCTAATCTTTCTGTTCAAGCGCCATCTAC”, the binding signal was 0.895 RPM ratio (pull-down/input).
With “GATGATTGTTCTCCCAGCTGATGAATTCGACGCTTCGAGTAAACAAATTTTCCTAATCTTTCTGTTCAAGCGCCATCTAC” the binding signal was 0.866 RPM ratio (pull-down/input).
In the case of “GATGATTGTTCTCCCAGCTGATGAATTAGCTAGCTCGAGTAAACAAATTTTCCTAATCTTTCTGTTCAAGCGCCATCTAC”, the binding signal is reported as 0.828 RPM ratio (pull-down/input).
For “GATGATTGTTCTCCCAGCTGATGAATTTTGAGCTTCGAGTAAACAAATTTTCCTAATCTTTCTGTTCAAGCGCCATCTAC”, the binding signal was 0.856 RPM ratio (pull-down/input).
For “GATGATTGTTCTCCCAGCTGATGAATTGGCTATTTCGAGTAAACAAATTTTCCTAATCTTTCTGTTCAAGCGCCATCTAC”, the binding signal was 0.957 RPM ratio (pull-down/input).
For “GATGATTGTTCTCCCAGCTGATGAATTGCAGGCATCGAGTAAACAAATTTTCCTAATCTTTCTGTTCAAGCGCCATCTAC”, the binding signal was 1.19 RPM ratio (pull-down/input).
In the case of “GATGATTGTTCTCCCAGCTGATGAATTTGTAAGTTCGAGTAAACAAATTTTCCTAATCTTTCTGTTCAAGCGCCATCTAC”, the binding signal is reported as 1.07 RPM ratio (pull-down/input).
In the case of “GATGATTGTTCTCCCAGCTGATGAATTAGATACCTCGAGTAAACAAATTTTCCTAATCTTTCTGTTCAAGCGCCATCTAC”, the binding signal is reported as 0.983 RPM ratio (pull-down/input).
In the case of “GATGATTGTTCTCCCAGCTGATGAATTGTGACGATCGAGTAAACAAATTTTCCTAATCTTTCTGTTCAAGCGCCATCTAC”, the binding signal is reported as 1.05 RPM ratio (pull-down/input).
With “GATGATTGTTCTCCCAGCTGATGAATTCTTCCCGTCGAGTAAACAAATTTTCCTAATCTTTCTGTTCAAGCGCCATCTAC” the binding signal was 0.804 RPM ratio (pull-down/input).
In the case of “GATGATTGTTCTCCCAGCTGATGAATTACCCTTTTCGAGTAAACAAATTTTCCTAATCTTTCTGTTCAAGCGCCATCTAC”, the binding signal is reported as 0.912 RPM ratio (pull-down/input).
In the case of “GATGATTGTTCTCCCAGCTGATGAATTGACTGAATCGAGTAAACAAATTTTCCTAATCTTTCTGTTCAAGCGCCATCTAC”, the binding signal is reported as 1.09 RPM ratio (pull-down/input).
In the case of “GATGATTGTTCTCCCAGCTGATGAATTAAAGGACTCGAGTAAACAAATTTTCCTAATCTTTCTGTTCAAGCGCCATCTAC”, the binding signal is reported as 0.814 RPM ratio (pull-down/input).
For “GATGATTGTTCTCCCAGCTGATGAATTCCCAACTTCGAGTAAACAAATTTTCCTAATCTTTCTGTTCAAGCGCCATCTAC”, the binding signal was 0.821 RPM ratio (pull-down/input).
With “GATGATTGTTCTCCCAGCTGATGAATTTCGCAGGTCGAGTAAACAAATTTTCCTAATCTTTCTGTTCAAGCGCCATCTAC” the binding signal was 0.789 RPM ratio (pull-down/input).
With “GATGATTGTTCTCCCAGCTGATGAATTGCGATATTCGAGTAAACAAATTTTCCTAATCTTTCTGTTCAAGCGCCATCTAC” the binding signal was 1.18 RPM ratio (pull-down/input).
“GATGATTGTTCTCCCAGCTGATGAATTGCGTGCATCGAGTAAACAAATTTTCCTAATCTTTCTGTTCAAGCGCCATCTAC” was tested, and the binding signal was 1.33 RPM ratio (pull-down/input).
In the case of “GATGATTGTTCTCCCAGCTGATGAATTCTCGCGGTCGAGTAAACAAATTTTCCTAATCTTTCTGTTCAAGCGCCATCTAC”, the binding signal is reported as 0.872 RPM ratio (pull-down/input).
For “GATGATTGTTCTCCCAGCTGATGAATTACGCCTTTCGAGTAAACAAATTTTCCTAATCTTTCTGTTCAAGCGCCATCTAC”, the binding signal was 0.999 RPM ratio (pull-down/input).
For “GATGATTGTTCTCCCAGCTGATGAATTAGCTATGTCGAGTAAACAAATTTTCCTAATCTTTCTGTTCAAGCGCCATCTAC”, the binding signal was 0.923 RPM ratio (pull-down/input).
In the case of “GATGATTGTTCTCCCAGCTGATGAATTATATTTCTCGAGTAAACAAATTTTCCTAATCTTTCTGTTCAAGCGCCATCTAC”, the binding signal is reported as 1.15 RPM ratio (pull-down/input).
With “GATGATTGTTCTCCCAGCTGATGAATTTTCCGTATCGAGTAAACAAATTTTCCTAATCTTTCTGTTCAAGCGCCATCTAC” the binding signal was 0.944 RPM ratio (pull-down/input).
With “GATGATTGTTCTCCCAGCTGATGAATTTACAAGGTCGAGTAAACAAATTTTCCTAATCTTTCTGTTCAAGCGCCATCTAC” the binding signal was 1.23 RPM ratio (pull-down/input).
“GATGATTGTTCTCCCAGCTGATGAATTAGCACGGTCGAGTAAACAAATTTTCCTAATCTTTCTGTTCAAGCGCCATCTAC” was tested, and the binding signal was 0.808 RPM ratio (pull-down/input).
In the case of “GATGATTGTTCTCCCAGCTGATGAATTGTAATTTTCGAGTAAACAAATTTTCCTAATCTTTCTGTTCAAGCGCCATCTAC”, the binding signal is reported as 1.19 RPM ratio (pull-down/input).
For “GATGATTGTTCTCCCAGCTGATGAATTGGAGTTATCGAGTAAACAAATTTTCCTAATCTTTCTGTTCAAGCGCCATCTAC”, the binding signal was 0.984 RPM ratio (pull-down/input).
